The RNAGym collection of RNA variant scans (doi:10.7554/elife.90254)
The source gives no read counts; variants with many changes may rest on few reads.

B1: LINE1-mini (parent)
chain: GGCAGAGCUCAACACAGCGUGGCAAAGUGGCUGUGGCUAGACUGCC

Variants of: B1
Test: self-cleavage, relative activity (ratio to wild type); higher = more cleavage; in vitro, sequencing; the parent is a self-cleaving ribozyme

| Variant | self-cleavage |
| --- | --- |
| GGCCGAGGUCAACACAGCCUGGCAAAGUGGCUGUGGCUAGACUGCC [A4C C8G G19C] | 0.01 |
| GGCCGAGCUCAAAACAGCGUGGCAAAGUGGCAGUGGCUAGACUGCC [A4C C13A U32A] | 0.05 |
| GGCCGAGCUCAACACAGGGUGGCACAGUGGCUGUGGCUAGACUCCC [A4C C18G A25C G44C] | 0.06 |
| GGCCGAGUUCAACACAGCGUGGCAAAGUGGCUGUGUCUAGACUGCC [A4C C8U G36U] | 0.26 |
| GGCCGAGCUCAACACAGCGUGGCUAAGUGGCUGUGGCUAGACAGCC [A4C A24U U43A] | 0.04 |
| GGCCGAGCUCAACACAGCGUGGCGAGGUGGCUGUGGCUAGACUGCC [A4C A24G A26G] | 0.08 |
| GGCCGAGCUCAACAGAGCGAGGCAAACGGGCUGUGGCUAGACUGCC [A4C C15G U20A G27C U28G] | 0.01 |
| GGCCGAGUAAAACACAGCGUGGCAAAGUGGCUGUGGCUAGACUGCC [A4C C8U U9A C10A] | 0.03 |
| GGCCGAGCUCAAUACACCAUGGCAAUGUGGCUGUGGCUAGACUGCC [A4C C13U G17C G19A A26U] | 0.09 |
| GGCCGAGCUAAACACAGCGUGGCAAAGUGGCUGUGGCCCGACUGCC [A4C C10A U38C A39C] | 0.01 |
| GGCCGAGCUCAAGACAGCGUGGCAACGUGGCUGUGGCUAGACUGCC [A4C C13G A26C] | 0.45 |
| GGCCGAGCUAAACACAGCGUGGCAAAGUGGUUGUGGCUCGACUGCC [A4C C10A C31U A39C] | 0.02 |
| GGCCGAGCUCAAAACAGCGUGGCAAAGUGCCUGUGGCUUGACUGCC [A4C C13A G30C A39U] | 0.04 |
| GGCCGAGCUCAAGACAGCAUGGCAAAGUGGCUGUGGCUAGACUGCC [A4C C13G G19A] | 0.04 |
| GGCCGAGAUCAACACAGCGUGGCAAAGUGGCUGUGGCUAAACGGCC [A4C C8A G40A U43G] | 0.15 |
| GGCCGAGCUCAACACAGCGUGGCAACGAGGCUGUGGCCAGACUGCC [A4C A26C U28A U38C] | 0.02 |
| GGCCGAGCUGAACACAGCCUGGCUAAGUGGCUGUGGCUAGACUGCC [A4C C10G G19C A24U] | 0.02 |
| GGCCGAGCUCAACACAGCGUGGCACAGUGGCUGUGGCUAGGCGGCC [A4C A25C A41G U43G] | 0 |
| GGCCGAGCUCAACACAGGGUGGCAAAGUGGCUGCGGCUAGACUGCC [A4C C18G U34C] | 0.05 |

| Variant | self-cleavage |
| --- | --- |
| GGCCGAGAUCAGCACAGCGUGGCAAAGUGGCUGUGGCUAGACUGCC [A4C C8A A12G] | 0.27 |
| GGCCGAGUUCUACACAGCGUGGCAAAGUGGCUGUGGCUAGGCUGCC [A4C C8U A11U A41G] | 0.03 |
| GGCCGAGCUCAACACAGUGUGCCAAAGUGGCUAUGGCUAGACUGCC [A4C C18U G22C G33A] | 0.04 |
| GGCCGAGCUCAACACAGCGUGGCAAAGUGGCUGUGGCUAGCCCGCC [A4C A41C U43C] | 0.03 |
| GGCCGAGCUAAACACAGAGUGGCACAGUGGCUGUGACUAGACUGCC [A4C C10A C18A A25C G36A] | 0.02 |
| GGCCGAGCUCAACACAGCGUGGCAAGCUGGCGGUGGCUAGACUGCA [A4C A26G G27C U32G C46A] | 0.02 |
| GGCCGAGCUCAAAACAGCGUGGCAAAGUGGGUGUGGCUAGACUGCC [A4C C13A C31G] | 0.31 |
| GGCCGAGGUCGACACAGCGUGGCAAAGUGGCUGUGGAUAGACUUCC [A4C C8G A11G C37A G44U] | 0 |
| GGCCGAGCUCAAUACAUCGUGGCAAAGUAGCUGUGGCUAGACUGCC [A4C C13U G17U G29A] | 0.07 |
| GGCCGAGGUCAACAAAGCGUGGAAAACUGGCUGUGGCUAGACUGAC [A4C C8G C15A C23A G27C C45A] | 0.01 |
| GGCCGAGAUCAACACAGCGUGGCAAAAUGGCUGUGGCUAGACGGAA [A4C C8A G27A U43G C45A C46A] | 0.03 |
| GGCCGAGCUCAAGACAGCGUGGCAAAGUGGCUGUGGCUAGACUGCA [A4C C13G C46A] | 0.03 |
| GGCCGAGCUCAACACAGAGUGGCAGAGUGACUGUGGCUCGACUGCC [A4C C18A A25G G30A A39C] | 0 |
| GGCCGAGCUUAACACAGCGUGGCAAAGUGGCUGUGGAUAGACUGCC [A4C C10U C37A] | 0.09 |
| GGCCGAGCUCAACACAGCGUGGCAAGGUGGCUGUGGCUAAGCUGCC [A4C A26G G40A A41G] | 0.08 |
| GGCCGAGCUAAACACAAAGUGCCAAAGUGGCUAUGGCUAGACUGCC [A4C C10A G17A C18A G22C G33A] | 0.01 |
| GGCCGAGCUCAACAAAUCGUGGCAAAGUGGCUGUGGCUAUACUGCC [A4C C15A G17U G40U] | 0 |
| GGCCGAGCUCAACAUUGCGUGGCAAAGUGGCUGUGGCUAGACUGCC [A4C C15U A16U] | 0.02 |
| GGCCGAGCUGAACACAGUGUGGCAAAGUGGCUGUGGCUAGACUGCC [A4C C10G C18U] | 0.02 |

| Variant | self-cleavage |
| --- | --- |
| GGCCGAGGUCAACAUAGCGUGGCAAACUGGCUGUGGCCAGACUGCC [A4C C8G C15U G27C U38C] | 0.05 |
| GGCCGAGCUUAACACAGCGUUGCAAAGUGGCUGUGGCUAGACUGCA [A4C C10U G21U C46A] | 0.03 |
| GGCCGAGGUCAACACAGCGUGGCAAAGUGGCUGUGACUAGACUGCC [A4C C8G G36A] | 0.29 |
| GGCCGAGCUCAACAAAGCGUGGCAAAGUGGCUGUGGCUAGACUGCA [A4C C15A C46A] | 0.01 |
| GGCCGAGAUCAACACAGCGUGGCAAAGUGGCUUUGGCUAGACUGCC [A4C C8A G33U] | 0.26 |
| GGCCGAGCUCAAAACAGCGUGGCAAAAUGGGUGUGGCUAGACUGCC [A4C C13A G27A C31G] | 0.06 |
| GGCCGAGCUCAAUACAGCGUGUCAAAGUGGCUGUGGCUAGACUGCC [A4C C13U G22U] | 0.61 |
| GGCCGAGAUCAAAACAGCGUGGCCAAGUGACUGUGGCGAGACUGCC [A4C C8A C13A A24C G30A U38G] | 0.12 |
| GGCCGAGAUCAACACAGCGUGGCAAAGUGUCUGUGGAUAGACUGCC [A4C C8A G30U C37A] | 0.13 |
| GGCCGAGCUCAACAGAGGGUGGCAAAGUGGCUGUGGCUAGACUGCC [A4C C15G C18G] | 0.03 |
| GGCCGAGCUCAACACAGAGUGGUAAAGAGGCUCUGGCUAGACUGCC [A4C C18A C23U U28A G33C] | 0.15 |
| GGCCGAGCUCAACAUAGCGUGGCAAAGGGGCUGUGGCUAGAGUGCC [A4C C15U U28G C42G] | 0.35 |
| GGCCGAGCUGAACACAGCGCGGCAAAGUGGCUGUGGCUACACUGCC [A4C C10G U20C G40C] | 0.01 |
| GGCCGAGGUCAACACAGCGUGGCAAAGUGGCUGUGGCUAUACUGCC [A4C C8G G40U] | 0.1 |
| GGCCGAGCUCAACACAGCGUGGCAGAGGGGCUGUGGCGAGACUGCC [A4C A25G U28G U38G] | 0.01 |
| GGCCGAGCUCAACACAGUGUGGCAAAGUGGCUGUCGCUAGACUGCC [A4C C18U G35C] | 0.06 |
| GGCCGAGCUCAACACAGUGUGGCAAAGUGCCUGUGGCUUGACUGCC [A4C C18U G30C A39U] | 0.23 |
| GGCCGAGCUCAACAUAGCGUGGCAAAGUGGCCGUGGCUAGACUGCC [A4C C15U U32C] | 0.15 |
